In one assay the test system is OVCAR4. Briefly: log2 surviving fraction (library drug vs vehicle, or drug + carboplatin vs carboplatin alone; relative to plate median); ovarian cancer lines: OVCAR4 is platinum-sensitive and Ov4Carbo platinum-resistant; higher = more cell survival. The note with it: library drug concentration 10 µM, 7 days.
The test system of another assay is Ov4Carbo. The assay is described as above. The following applies: library drug concentration 10 µM, 7 days.

Drawing on the supplement of paper PMC8047034, this text covers log2 surviving fraction for 23 compounds.

Each structure is given as a SMILES string. Where a name gives a salt, the structure may show the parent alone. This is one part of the list. Many values rest on one well or one pass, so single values are uncertain.

For `NCCc1c[nH]c2ccc(O)cc12` [Serotonin HCl], the log2 surviving fraction with OVCAR4 (carboplatin co-treatment 0 µM) is 1.35; in the assay with OVCAR4 (carboplatin co-treatment 5 µM), 1.36; in the assay with Ov4Carbo (carboplatin co-treatment 0 µM), 0.787; with Ov4Carbo (carboplatin co-treatment 5 µM), 0.934.

As for `CC[C@H]1OC(=O)[C@H](C)[C@@H](O[C@H]2C[C@@](C)(OC)[C@@H](O)[C@H](C)O2)[C@H](C)[C@@H](O[C@@H]2O[C@H](C)C[C@H](N(C)C)[C@H]2O)[C@](C)(O)C[C@@H](C)/C(=N\OCOCCOC)[C@H](C)[C@@H](O)[C@]1(C)O` [Roxithromycin (Roxl-150)], the log2 surviving fraction in the assay with OVCAR4 (carboplatin co-treatment 0 µM) was -0.85; in the assay with OVCAR4 (carboplatin co-treatment 5 µM), -0.756; with Ov4Carbo (carboplatin co-treatment 0 µM) it was -0.361; with Ov4Carbo (carboplatin co-treatment 5 µM) it was 0.255.

For `CC(C)c1c(C(=O)Nc2ccccc2)c(-c2ccccc2)c(-c2ccc(F)cc2)n1CC[C@@H](O)C[C@@H](O)CC(=O)O` [Atorvastatin calcium (Lipitor)], the log2 surviving fraction in the assay on OVCAR4 (carboplatin co-treatment 0 µM) was -3.03; in the assay with OVCAR4 (carboplatin co-treatment 5 µM) it was -1.85; with Ov4Carbo (carboplatin co-treatment 0 µM) it was -1.45; in the assay on Ov4Carbo (carboplatin co-treatment 5 µM) it was -2.22.

As for `CN1CCC(=C2c3ccccc3CC(=O)c3sccc32)CC1` [Ketotifen fumarate (Zaditor)], the log2 surviving fraction is 1.03 with OVCAR4 (carboplatin co-treatment 0 µM), 0.917 in the assay on OVCAR4 (carboplatin co-treatment 5 µM), -0.348 with Ov4Carbo (carboplatin co-treatment 0 µM) and 0.719 in the assay with Ov4Carbo (carboplatin co-treatment 5 µM).

Turning to `CC(=O)OCC(=O)[C@@]12N=C(C)O[C@@H]1C[C@H]1[C@@H]3CCC4=CC(=O)C=C[C@]4(C)[C@H]3[C@@H](O)C[C@@]12C` [Deflazacort (Calcort)], the log2 surviving fraction was -0.363 with OVCAR4 (carboplatin co-treatment 0 µM), -0.155 in the assay with OVCAR4 (carboplatin co-treatment 5 µM), 0.777 in the assay on Ov4Carbo (carboplatin co-treatment 0 µM) and 0.597 in the assay on Ov4Carbo (carboplatin co-treatment 5 µM).

In the case of `Cc1nc2n(c(=O)c1CCN1CCC(c3noc4cc(F)ccc34)CC1)CCCC2O` (configuration not stated) [Paliperidone (Invega)], the log2 surviving fraction in the assay on OVCAR4 (carboplatin co-treatment 0 µM) amounted to 0.497; in the assay on OVCAR4 (carboplatin co-treatment 5 µM), 0.961; in the assay on Ov4Carbo (carboplatin co-treatment 0 µM), 1.1; with Ov4Carbo (carboplatin co-treatment 5 µM) it was 0.972.

For the compound `O=C(O)c1cc(/N=N/c2ccc(S(=O)(=O)Nc3ccccn3)cc2)ccc1O` [Sulfasalazine (Azulfidine)], the log2 surviving fraction with OVCAR4 (carboplatin co-treatment 0 µM) was -4.07; with OVCAR4 (carboplatin co-treatment 5 µM) it was 1.33; in the assay with Ov4Carbo (carboplatin co-treatment 0 µM), 0.898; in the assay with Ov4Carbo (carboplatin co-treatment 5 µM), 0.372.

Turning to `CCC[C@@H]1C[C@@H](C(=O)N[C@@H]([C@H]2O[C@H](SC)[C@H](OP(=O)(O)O)[C@@H](O)[C@H]2O)[C@H](C)Cl)N(C)C1` [Clindamycin phosphate], the log2 surviving fraction is -1.62 in the assay on OVCAR4 (carboplatin co-treatment 0 µM), -2.32 with OVCAR4 (carboplatin co-treatment 5 µM), -0.552 in the assay with Ov4Carbo (carboplatin co-treatment 0 µM) and -0.551 in the assay with Ov4Carbo (carboplatin co-treatment 5 µM).

As for `CN(C)CCN(Cc1cccs1)c1ccccn1` [Methapyrilene HCl], the log2 surviving fraction is -0.183 in the assay on OVCAR4 (carboplatin co-treatment 0 µM), 1.24 with OVCAR4 (carboplatin co-treatment 5 µM), -0.0474 in the assay on Ov4Carbo (carboplatin co-treatment 0 µM) and -0.975 in the assay on Ov4Carbo (carboplatin co-treatment 5 µM).

`O=c1cc[nH]c(=S)[nH]1` [2-Thiouracil]: the log2 surviving fraction in the assay on OVCAR4 (carboplatin co-treatment 0 µM) is 1.15; in the assay with OVCAR4 (carboplatin co-treatment 5 µM) it was 0.201; with Ov4Carbo (carboplatin co-treatment 0 µM) it was 0.419; in the assay with Ov4Carbo (carboplatin co-treatment 5 µM) it was 0.936.

As for `Cn1c(CNc2ccc(C(=N)N)cc2)nc2cc(C(=O)N(CCC(=O)O)c3ccccn3)ccc21` [BIBR 953 (Dabigatran etexilate, Pradaxa)], the log2 surviving fraction with OVCAR4 (carboplatin co-treatment 0 µM) is 0.0263; in the assay with OVCAR4 (carboplatin co-treatment 5 µM), 0.344; in the assay with Ov4Carbo (carboplatin co-treatment 0 µM) it was 0.277; in the assay on Ov4Carbo (carboplatin co-treatment 5 µM), -0.225.

With `COc1ccccc1OCC(O)CO` (configuration not stated) [Guaifenesin (Guaiphenesin)], the log2 surviving fraction in the assay with OVCAR4 (carboplatin co-treatment 0 µM) was 0.0182; in the assay with OVCAR4 (carboplatin co-treatment 5 µM) it was 0.11; with Ov4Carbo (carboplatin co-treatment 0 µM), -0.0699; in the assay on Ov4Carbo (carboplatin co-treatment 5 µM), 0.187.

Regarding `Cc1noc(NS(=O)(=O)c2ccc(N)cc2)c1C` [Sulfisoxazole], the log2 surviving fraction in the assay on OVCAR4 (carboplatin co-treatment 0 µM) is 0.518; in the assay on OVCAR4 (carboplatin co-treatment 5 µM) it was 0.586; in the assay with Ov4Carbo (carboplatin co-treatment 0 µM), 0.369; in the assay on Ov4Carbo (carboplatin co-treatment 5 µM), -0.232.

With `Cc1ccc(O)c([C@H](CCN(C(C)C)C(C)C)c2ccccc2)c1` [Tolterodine tartrate (Detrol LA)], the log2 surviving fraction with OVCAR4 (carboplatin co-treatment 0 µM) was -0.0458; in the assay on OVCAR4 (carboplatin co-treatment 5 µM), -0.496; in the assay on Ov4Carbo (carboplatin co-treatment 0 µM), -1.45; with Ov4Carbo (carboplatin co-treatment 5 µM), -0.038.

As to `NS(=O)(=O)c1cc2c(cc1Cl)N=C(CSCc1ccccc1)NS2(=O)=O` [Benzthiazide], the log2 surviving fraction in the assay on OVCAR4 (carboplatin co-treatment 0 µM) is 1.05; with OVCAR4 (carboplatin co-treatment 5 µM) it was 0.485; in the assay with Ov4Carbo (carboplatin co-treatment 0 µM), 1.71; with Ov4Carbo (carboplatin co-treatment 5 µM) it was 1.44.

With `CCCNC(=O)NS(=O)(=O)c1ccc(Cl)cc1` [Chlorpropamide], the log2 surviving fraction with OVCAR4 (carboplatin co-treatment 0 µM) was -0.31; in the assay on OVCAR4 (carboplatin co-treatment 5 µM) it was -0.397; in the assay with Ov4Carbo (carboplatin co-treatment 0 µM) it was 0.615; with Ov4Carbo (carboplatin co-treatment 5 µM) it was 0.147.

Consider `C=CC[C@]1(O)CC[C@H]2[C@@H]3CCC4=CC(=O)CCC4=C3C=C[C@@]21C` [Altrenogest], for which the log2 surviving fraction in the assay with OVCAR4 (carboplatin co-treatment 0 µM) is -0.823; in the assay on OVCAR4 (carboplatin co-treatment 5 µM), -0.839; with Ov4Carbo (carboplatin co-treatment 0 µM), -2.18; in the assay with Ov4Carbo (carboplatin co-treatment 5 µM) it was -1.72.

On to `Cc1cc(C2CCCCC2)n(O)c(=O)c1` [Ciclopirox ethanolamine], for which the log2 surviving fraction in the assay with OVCAR4 (carboplatin co-treatment 0 µM) is -9.2; in the assay with OVCAR4 (carboplatin co-treatment 5 µM), -8.26; in the assay with Ov4Carbo (carboplatin co-treatment 0 µM), -8.79; in the assay with Ov4Carbo (carboplatin co-treatment 5 µM), -7.93.

Regarding `O=NN(CCCl)C(=O)NC1CCCCC1` [Lomustine (CeeNU)], the log2 surviving fraction in the assay on OVCAR4 (carboplatin co-treatment 0 µM) came out at 0.567; with OVCAR4 (carboplatin co-treatment 5 µM), 0.61; in the assay with Ov4Carbo (carboplatin co-treatment 0 µM), 0.724; in the assay on Ov4Carbo (carboplatin co-treatment 5 µM), 0.273.

As for `Cc1cc(=O)n(-c2ccccc2)n1C` [Antipyrine], the log2 surviving fraction with OVCAR4 (carboplatin co-treatment 0 µM) is 0.331; with OVCAR4 (carboplatin co-treatment 5 µM) it was 0.46; in the assay on Ov4Carbo (carboplatin co-treatment 0 µM), 0.368; in the assay with Ov4Carbo (carboplatin co-treatment 5 µM), -0.146.

As to `C[C@H](N[C@@H](CCc1ccccc1)C(=O)O)C(=O)N1CCC[C@H]1C(=O)O` [Enalaprilat dihydrate], the log2 surviving fraction with OVCAR4 (carboplatin co-treatment 0 µM) is 0.158; in the assay with OVCAR4 (carboplatin co-treatment 5 µM), -0.0733; in the assay on Ov4Carbo (carboplatin co-treatment 0 µM) it was 0.608; with Ov4Carbo (carboplatin co-treatment 5 µM) it was 0.5.

On to `NC(=O)c1ncn([C@@H]2O[C@H](CO)[C@@H](O)[C@H]2O)c1N` [Acadesine], for which the log2 surviving fraction in the assay on OVCAR4 (carboplatin co-treatment 0 µM) turned out to be 0.328; in the assay on OVCAR4 (carboplatin co-treatment 5 µM), 0.57; with Ov4Carbo (carboplatin co-treatment 0 µM), 0.717; in the assay on Ov4Carbo (carboplatin co-treatment 5 µM), 0.825.

Take `CCN(CC)CC#CCOC(=O)C(O)(c1ccccc1)C1CCCCC1` (configuration not stated) [Oxybutynin chloride]: the log2 surviving fraction in the assay on OVCAR4 (carboplatin co-treatment 0 µM) is -0.407; with OVCAR4 (carboplatin co-treatment 5 µM), -1.03; in the assay on Ov4Carbo (carboplatin co-treatment 0 µM) it was -1.22; with Ov4Carbo (carboplatin co-treatment 5 µM), -0.767.
